Measured values taken from the RNAGym collection of RNA variant scans (doi:10.7554/elife.90254).
Read counts are not given, so values of variants with three or more changes are uncertain.

B1: OR4K15 (parent)
chain: GUUAACGGUCAUAGGCCAUGGAAACUAGGAGCACCAUUUCGCUGCCAGUGAAGAAAUGAACAAAGAAAAUCUGGGCCAGGCAGGCAUCAAAAGAAAUAGUCUUGCGCUCAACCAGAAAGUCUGUAAUCAUUUUAAGGGUA

Variants of: B1
Assay: self-cleavage, relative activity (ratio to wild type); higher = more cleavage; in vitro, sequencing; the parent is a self-cleaving ribozyme

Row | Variant | self-cleavage
1 | U43C A52G A78G | 0.47
2 | U49G U57A A111G G123A A126G | 0
3 | A18U A30G U43A U120C | 2.23
4 | A82U A86U U131G | 0.09
5 | A18G U108C U131C | 0.01
6 | A47U A56G A98G | 0.08
7 | A4G A36G U87C A89G U102A U130C U139C | 0.24
8 | U43C C61U A64G U132A | 1.55
9 | A55G A89U A114G | 0.12
10 | A33G A78U U108C | 0.02
11 | G73C A90G U120A | 0.07
12 | A59U A62G A82G A91G U130C | 0.04
13 | C16U G79A A92G A116U A118U U124C U127C | 0
14 | A5G A68G U127A | 1.71
15 | U57C A59U A110U | 0.98
16 | U9G A27G A59G U87C A92G U97A | 1.08
17 | U3C A24G U43C | 0.37
18 | U72C A95G A126G | 0.25
19 | A11U U26C A64G A111G U132G | 0.01
20 | A18G A82G A89G | 0.46
21 | A64G U70A A135C | 1.61
22 | A36U A56G U57G A60G A140G | 1.45
23 | A68G C109U A110G | 0.02
24 | U2C A59U G73A | 0.12

Row | Variant | self-cleavage
25 | A33U U39A A94C | 2.5
26 | U57A A63G U132C | 0.65
27 | U2C A90G A96G A135U | 0.86
28 | A33G G44A A47U U49A A82G | 0.18
29 | A36U G65A U127C U130C | 0.46
30 | U39C A54G U57C | 1.2
31 | A13U A55G A64G | 1.56
32 | U19C C42A U87G U127A U132C | 0.99
33 | U2A U39C A95G U103C | 1.38
34 | U2C U72G A89G A126G U131A | 0.12
35 | A68G A91G A125U | 0.73
36 | A66C A89G U103C U132C | 0.93
37 | A22G U39A U43C | 1.2
38 | A5G A52G A68G G84A U87C | 0.93
39 | A36G U39C A94G | 1.39
40 | A33G A89G A118G | 0.1
41 | A5G A67G A89U U97C U100C | 2.07
42 | U19C A22U U102C C107U A117G | 0.02
43 | A67U A69U A116G U139C | 1.42
44 | A24U U37C U38C A64G G80A | 0.23
45 | A22U A51G A55G A59G G74A A78C | 0.31
46 | C35U A47G A118U | 0.2
47 | A23U A27G U38C U43C C121U U131C | 0.4
48 | U57A A66G G79A A114G U127C | 0.02

Row | Variant | self-cleavage
49 | U38C A96G C113A | 0.01
50 | U38C A62G A82U A95G | 0.34
51 | A22G A33G U43C U70C A82U U87C | 0.14
52 | U3A A91U U122C | 1.13
53 | U2C A90G U124A | 0.12
54 | A5G A78U A111G A117G | 0.01
55 | A86G U108C A125U | 0.01
56 | A23G A59G A60G | 0.62
57 | A23G A52U G106A | 0.08
58 | A54G C81U U124C | 0.1
59 | U39C A47G A91G U130C | 0.66
60 | A23U A47U A82U | 0.41
61 | A23G A64U U122C | 0.57
62 | A23G A59U U100A A116G | 0.08
63 | G8A U19C U70C G115U U130C | 0.03
64 | U102C A129G A140G | 1.13
65 | U9G A33G C46A A66G U70G | 0.48
66 | U9A U19A A55G A62G A140G | 0.56
67 | U49C A56G A59G | 0.99
68 | G7A A22C U87C A117G A129G | 0.95
69 | A24G A64G U70C A110U | 0.39
70 | A11U A22G A117G | 1.73
71 | A24C A47C A110U | 1.11
72 | A90G U97C C109U A135U | 0.21

Row | Variant | self-cleavage
73 | A13G U26C A60G A89C U108C A117U | 0.01
74 | U26C U37C A92G A116G | 0.26
75 | A56G U108C A126G | 0
76 | U102C A126U U130C | 1.75
77 | A24G A56G G58U | 1.28
78 | G74A A94G U103C U130C U132C U139C | 0.04
79 | A23G A60G A64G A89G A98U A111G | 0.1
80 | A56G A117G U120C A134G | 0.66
81 | A24G U102C U132A | 2.12
82 | U12C A24G A64G U103C U130C U132C | 0.37
83 | A11U A52G A117G | 1.19
84 | A22G A59U U127C | 0.71
85 | A60U A63G A92G | 1.39
86 | A27G A56G A63G A82G | 0.4
87 | A36U U87C A90G A111U | 0.05
88 | U9C A62G A78C A89U U120C | 0.21
89 | A11G U19C A111G A125G | 0.01
90 | A13U A67G A82C | 0.05
91 | A60G A67G A90G | 0.14
92 | A5G A60G U103C | 0.94
93 | U70C A91G A94C A125G | 0.08
94 | U26C U49A A78U A135U | 0.15
95 | A52G A91G A92G A116G A125G A126G | 0.08
96 | A5G A13G A22G A82G U102C | 1.16

Row | Variant | self-cleavage
97 | C40U U57C A67G A94G | 1.68
98 | U2A U43G U127C | 0.92
99 | A51G A55G A69G G104A | 0.01
100 | U9C A54G G75C U120C | 0.16
101 | A5G C6U A47G A60G A66G | 1.02
102 | A18G U38A U100C A114G | 2.03
103 | U72C G83U U133C | 0.24
104 | A51G A56G A86G A135G | 0.69
105 | U12C U38C A69G U102C | 1.44
106 | A52G A54U A94G | 0.24
107 | A24G U72A A89G U122C U132A | 0.11
108 | U12C A52G U57A A78G A126U U132C | 0.24
109 | U9A U87A U122C | 0.68
110 | U39C A78U U120C | 0.19
111 | A52G A69G A116G | 0.46
112 | G1U A13G A24U A59G A63G | 0.73
113 | A36U A60U C71A A116G | 0.19
114 | U43A A63G A126G | 0.77
115 | A24G A91G U122A | 1.06
116 | A11G A13G A90G U103C U133A | 0.36
117 | A11G A33G U39C U130C | 0.63
118 | G41A U124G U131C | 1.3
119 | A51G A59G U108A | 0.02
120 | A27G A51U U102C | 2.22

Row | Variant | self-cleavage
121 | U39C U103C A110G | 0.2
122 | A47G A66U A91G | 0.5
123 | U19A A27G A78G A91G | 0.2
124 | A18U A67G A78G U100C U130C | 0.27
125 | U26A A30U U38C A47G A64G A135G | 1.53
126 | U3C A33G A91G | 0.6
127 | G1A A66G U70C U108C | 0.04
128 | U2G A64U A82G C105G | 0.19
129 | U19C U39C U87A | 2.09
130 | U9C A18C A82G A114G | 0.09
131 | U2C A22G U57C G75C U87C | 0.11
132 | A5G U12G A63G U72G | 0.93
133 | G41A A52G A110U | 0.92
134 | A55G A78G A90G | 0.07
135 | U57C A91G A92G | 0.72
136 | U43C U49C A69G | 0.61
137 | U26C A68G A90U | 1.59
138 | A30G A67C U70C A86U U108A G123A | 0.01
139 | A18G A23G C32U U37C U127C | 0.8
140 | U19C U102C U127C U139A | 1.16
141 | U9C A59G A86G A117G | 1.95
142 | A18U A69G U130C | 0.44
143 | C40A G44A U49C A67U | 1.69
144 | A5G A24G A27U A67G | 1.02

Row | Variant | self-cleavage
145 | U37C U39C A125G | 0.64
146 | A69G A116G U131C | 0.22
147 | U49C A63U A96U U108C | 0
148 | A11G A89G U102A | 0.77
149 | U43C A69G U100C U122C A126G | 1.5
150 | U12C U38C U72C U97C | 0.46
151 | A13G A59G G138A | 1.16
152 | A47U U49C A116U | 0.07
153 | U9C A36G U70C | 1.36
154 | A56G A117G U122C | 1.52
155 | U102G U130C U131C | 0.01
156 | A24C U37C U87C | 0.65
157 | A33G U72C U108C | 0.02
158 | A11G A22G A54G | 1.35
159 | A13G U103C U124A | 0.42
160 | U9C A13G A24G G73A A91G A140U | 0.26
161 | A22U U39C A89G U127G | 0
162 | U3C A23G U43C | 0.99
163 | A22G U43A A94U | 1.38
164 | U9C A47G A116G U131C | 0.34
165 | G7A A33G G73A A96G | 0.1
166 | G8A A86G A110C A129G | 0.16
167 | G14C A24G A30U | 1.16
